# No constants are given. Whether binding was seen depends on the method and setting. In cells and extracts the contact can be indirect. Some entries that bind do so weakly or less than the wild type. Tags and fused reporters may be left off the sequences shown.
# The chains behind the UniProt entries cited, without tags or fusion partners. Where a name states a change or a piece, a line headed by the entry shows the natural chain unless it says otherwise. A line that says so, or that is headed by a name, gives the form on record, which may keep a tag or linker.
# TSC2 c.3134C>T (p.S1045F) variant (P49815-1, form named): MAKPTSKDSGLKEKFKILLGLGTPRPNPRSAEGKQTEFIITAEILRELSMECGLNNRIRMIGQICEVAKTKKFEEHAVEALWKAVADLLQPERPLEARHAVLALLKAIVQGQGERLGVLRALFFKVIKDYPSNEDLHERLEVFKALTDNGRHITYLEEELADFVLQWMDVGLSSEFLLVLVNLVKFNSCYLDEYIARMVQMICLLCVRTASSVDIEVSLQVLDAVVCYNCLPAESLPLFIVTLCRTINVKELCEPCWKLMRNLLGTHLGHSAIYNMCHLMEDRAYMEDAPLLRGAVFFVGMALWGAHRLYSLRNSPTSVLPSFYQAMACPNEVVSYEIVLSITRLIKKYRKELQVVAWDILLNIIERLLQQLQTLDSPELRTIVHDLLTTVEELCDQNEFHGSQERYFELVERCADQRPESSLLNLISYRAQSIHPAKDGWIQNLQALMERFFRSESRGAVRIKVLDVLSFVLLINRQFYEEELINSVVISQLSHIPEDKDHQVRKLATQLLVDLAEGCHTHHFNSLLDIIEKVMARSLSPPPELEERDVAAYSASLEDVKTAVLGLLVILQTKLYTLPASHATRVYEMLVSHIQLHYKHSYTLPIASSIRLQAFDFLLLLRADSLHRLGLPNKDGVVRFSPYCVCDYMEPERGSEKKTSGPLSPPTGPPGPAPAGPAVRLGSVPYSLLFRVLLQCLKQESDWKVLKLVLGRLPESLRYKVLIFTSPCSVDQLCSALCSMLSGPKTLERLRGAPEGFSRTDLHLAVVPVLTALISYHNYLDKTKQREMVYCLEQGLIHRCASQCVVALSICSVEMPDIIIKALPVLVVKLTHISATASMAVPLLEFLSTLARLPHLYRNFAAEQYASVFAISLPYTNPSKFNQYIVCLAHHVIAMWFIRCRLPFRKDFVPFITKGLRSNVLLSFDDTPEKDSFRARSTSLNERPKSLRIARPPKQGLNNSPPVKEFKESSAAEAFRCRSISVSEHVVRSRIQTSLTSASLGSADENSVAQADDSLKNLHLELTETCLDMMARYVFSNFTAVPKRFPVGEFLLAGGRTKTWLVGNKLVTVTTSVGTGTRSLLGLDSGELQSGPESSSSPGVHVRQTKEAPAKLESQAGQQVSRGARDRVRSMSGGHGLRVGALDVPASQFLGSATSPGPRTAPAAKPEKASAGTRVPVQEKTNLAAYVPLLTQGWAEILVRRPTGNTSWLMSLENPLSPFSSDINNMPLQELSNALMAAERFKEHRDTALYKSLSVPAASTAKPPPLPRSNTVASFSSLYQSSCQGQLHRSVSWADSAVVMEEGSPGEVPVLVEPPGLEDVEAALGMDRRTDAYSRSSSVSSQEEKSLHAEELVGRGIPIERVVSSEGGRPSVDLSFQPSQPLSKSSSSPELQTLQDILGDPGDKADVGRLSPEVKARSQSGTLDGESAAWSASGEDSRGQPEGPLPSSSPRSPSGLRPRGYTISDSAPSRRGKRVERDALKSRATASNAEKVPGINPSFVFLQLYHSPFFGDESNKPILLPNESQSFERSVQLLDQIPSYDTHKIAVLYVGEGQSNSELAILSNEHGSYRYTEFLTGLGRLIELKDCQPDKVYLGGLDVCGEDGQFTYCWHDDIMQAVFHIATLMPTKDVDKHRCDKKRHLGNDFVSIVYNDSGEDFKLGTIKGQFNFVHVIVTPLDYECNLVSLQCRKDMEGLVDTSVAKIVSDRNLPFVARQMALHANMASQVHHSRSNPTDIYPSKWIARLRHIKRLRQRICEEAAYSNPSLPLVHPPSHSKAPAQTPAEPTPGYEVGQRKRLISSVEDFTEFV
# TSC2 c.2747T>C p.(L916P) variant (P49815-1, form named): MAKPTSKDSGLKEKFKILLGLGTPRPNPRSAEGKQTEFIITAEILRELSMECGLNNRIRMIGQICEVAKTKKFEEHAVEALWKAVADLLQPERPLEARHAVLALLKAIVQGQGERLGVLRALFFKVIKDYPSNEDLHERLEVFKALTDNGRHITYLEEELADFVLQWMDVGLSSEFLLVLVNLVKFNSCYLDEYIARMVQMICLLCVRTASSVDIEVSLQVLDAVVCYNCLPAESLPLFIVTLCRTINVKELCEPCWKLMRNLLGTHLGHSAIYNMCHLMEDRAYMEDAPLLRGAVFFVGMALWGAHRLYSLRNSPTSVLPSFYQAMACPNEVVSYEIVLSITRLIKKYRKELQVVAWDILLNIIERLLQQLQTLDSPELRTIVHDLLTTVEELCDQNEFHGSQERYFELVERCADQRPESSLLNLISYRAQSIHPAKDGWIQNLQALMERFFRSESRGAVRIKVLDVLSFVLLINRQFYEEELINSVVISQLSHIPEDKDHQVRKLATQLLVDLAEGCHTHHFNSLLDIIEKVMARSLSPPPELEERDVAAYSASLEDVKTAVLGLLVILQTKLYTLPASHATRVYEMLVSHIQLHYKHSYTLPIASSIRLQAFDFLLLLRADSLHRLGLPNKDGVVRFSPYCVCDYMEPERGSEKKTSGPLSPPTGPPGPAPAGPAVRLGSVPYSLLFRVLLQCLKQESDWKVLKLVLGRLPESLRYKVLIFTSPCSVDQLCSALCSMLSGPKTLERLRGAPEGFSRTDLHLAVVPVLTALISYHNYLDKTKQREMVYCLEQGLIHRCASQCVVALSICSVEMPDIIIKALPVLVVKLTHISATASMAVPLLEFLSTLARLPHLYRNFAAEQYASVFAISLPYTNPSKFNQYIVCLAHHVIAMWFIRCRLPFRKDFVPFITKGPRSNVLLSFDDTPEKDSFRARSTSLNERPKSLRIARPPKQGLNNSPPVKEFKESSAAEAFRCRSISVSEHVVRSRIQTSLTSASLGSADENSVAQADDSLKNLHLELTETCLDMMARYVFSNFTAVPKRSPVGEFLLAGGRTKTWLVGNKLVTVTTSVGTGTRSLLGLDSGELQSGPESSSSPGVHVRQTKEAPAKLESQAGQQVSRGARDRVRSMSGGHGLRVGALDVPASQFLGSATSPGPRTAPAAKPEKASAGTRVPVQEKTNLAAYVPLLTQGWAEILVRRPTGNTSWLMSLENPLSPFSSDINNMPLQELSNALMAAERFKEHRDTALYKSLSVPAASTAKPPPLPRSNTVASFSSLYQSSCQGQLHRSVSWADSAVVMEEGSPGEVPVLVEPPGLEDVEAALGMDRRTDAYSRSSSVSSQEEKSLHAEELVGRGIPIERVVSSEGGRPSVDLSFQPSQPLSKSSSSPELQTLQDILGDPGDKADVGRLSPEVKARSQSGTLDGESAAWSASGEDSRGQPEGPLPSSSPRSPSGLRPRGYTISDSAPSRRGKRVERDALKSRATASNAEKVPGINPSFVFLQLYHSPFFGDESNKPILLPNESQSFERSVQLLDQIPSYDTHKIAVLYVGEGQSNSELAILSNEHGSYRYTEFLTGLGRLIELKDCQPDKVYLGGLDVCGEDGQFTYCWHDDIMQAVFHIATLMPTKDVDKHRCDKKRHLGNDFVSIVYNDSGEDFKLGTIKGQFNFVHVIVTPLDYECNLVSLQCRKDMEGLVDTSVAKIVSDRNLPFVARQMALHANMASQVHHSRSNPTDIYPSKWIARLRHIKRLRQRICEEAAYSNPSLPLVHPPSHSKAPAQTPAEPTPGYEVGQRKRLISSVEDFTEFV
# TSC2 c.4966G>A p.(D1656N) variant (P49815-1, form named): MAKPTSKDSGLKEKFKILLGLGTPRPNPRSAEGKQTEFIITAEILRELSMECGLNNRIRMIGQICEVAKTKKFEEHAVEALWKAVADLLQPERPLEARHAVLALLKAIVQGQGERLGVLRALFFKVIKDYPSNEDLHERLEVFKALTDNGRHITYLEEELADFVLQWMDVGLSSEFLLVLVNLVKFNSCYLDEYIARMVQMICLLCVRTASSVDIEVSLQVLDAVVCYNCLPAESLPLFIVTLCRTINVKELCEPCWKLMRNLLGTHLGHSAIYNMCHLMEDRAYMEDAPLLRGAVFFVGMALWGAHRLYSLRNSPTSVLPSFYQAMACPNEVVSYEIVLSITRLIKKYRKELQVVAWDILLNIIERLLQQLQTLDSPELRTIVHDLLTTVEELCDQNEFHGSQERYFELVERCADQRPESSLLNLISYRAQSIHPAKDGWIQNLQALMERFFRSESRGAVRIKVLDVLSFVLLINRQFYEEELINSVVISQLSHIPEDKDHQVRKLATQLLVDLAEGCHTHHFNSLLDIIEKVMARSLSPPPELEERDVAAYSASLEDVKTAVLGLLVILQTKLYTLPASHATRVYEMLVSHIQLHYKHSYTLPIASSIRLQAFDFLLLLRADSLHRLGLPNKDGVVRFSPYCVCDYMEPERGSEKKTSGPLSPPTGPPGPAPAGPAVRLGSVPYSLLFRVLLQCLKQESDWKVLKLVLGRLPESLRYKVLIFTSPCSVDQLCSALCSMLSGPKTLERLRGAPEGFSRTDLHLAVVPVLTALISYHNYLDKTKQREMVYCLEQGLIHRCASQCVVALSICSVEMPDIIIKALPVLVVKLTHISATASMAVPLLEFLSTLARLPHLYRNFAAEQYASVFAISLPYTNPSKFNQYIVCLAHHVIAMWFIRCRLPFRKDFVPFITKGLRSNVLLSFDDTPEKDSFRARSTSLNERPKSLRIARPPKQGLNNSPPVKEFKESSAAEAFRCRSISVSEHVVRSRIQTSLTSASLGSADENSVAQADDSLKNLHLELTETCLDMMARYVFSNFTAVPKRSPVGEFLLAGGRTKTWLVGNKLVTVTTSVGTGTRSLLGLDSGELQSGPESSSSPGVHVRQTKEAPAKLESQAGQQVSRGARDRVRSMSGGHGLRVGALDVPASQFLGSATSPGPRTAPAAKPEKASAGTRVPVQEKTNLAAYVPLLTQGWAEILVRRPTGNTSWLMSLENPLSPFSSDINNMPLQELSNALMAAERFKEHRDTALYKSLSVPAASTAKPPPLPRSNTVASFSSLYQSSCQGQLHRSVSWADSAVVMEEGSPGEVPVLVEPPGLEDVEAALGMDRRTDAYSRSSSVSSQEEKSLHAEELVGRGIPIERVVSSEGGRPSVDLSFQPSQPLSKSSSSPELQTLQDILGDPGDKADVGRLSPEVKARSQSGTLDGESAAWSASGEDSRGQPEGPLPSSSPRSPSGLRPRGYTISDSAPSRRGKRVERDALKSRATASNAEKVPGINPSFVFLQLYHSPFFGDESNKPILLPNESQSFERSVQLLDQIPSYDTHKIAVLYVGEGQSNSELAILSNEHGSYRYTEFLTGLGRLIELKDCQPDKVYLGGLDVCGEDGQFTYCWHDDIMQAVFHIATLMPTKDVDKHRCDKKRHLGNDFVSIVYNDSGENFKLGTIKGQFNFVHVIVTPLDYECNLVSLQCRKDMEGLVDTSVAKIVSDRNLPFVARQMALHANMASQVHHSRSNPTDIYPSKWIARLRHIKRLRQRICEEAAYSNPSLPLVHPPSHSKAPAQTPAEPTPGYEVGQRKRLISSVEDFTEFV
# Biological target: T1, TSC1, wild-type, C-terminal myc-epitope tag (human) (UniProt Q92574)
# T1 sequence: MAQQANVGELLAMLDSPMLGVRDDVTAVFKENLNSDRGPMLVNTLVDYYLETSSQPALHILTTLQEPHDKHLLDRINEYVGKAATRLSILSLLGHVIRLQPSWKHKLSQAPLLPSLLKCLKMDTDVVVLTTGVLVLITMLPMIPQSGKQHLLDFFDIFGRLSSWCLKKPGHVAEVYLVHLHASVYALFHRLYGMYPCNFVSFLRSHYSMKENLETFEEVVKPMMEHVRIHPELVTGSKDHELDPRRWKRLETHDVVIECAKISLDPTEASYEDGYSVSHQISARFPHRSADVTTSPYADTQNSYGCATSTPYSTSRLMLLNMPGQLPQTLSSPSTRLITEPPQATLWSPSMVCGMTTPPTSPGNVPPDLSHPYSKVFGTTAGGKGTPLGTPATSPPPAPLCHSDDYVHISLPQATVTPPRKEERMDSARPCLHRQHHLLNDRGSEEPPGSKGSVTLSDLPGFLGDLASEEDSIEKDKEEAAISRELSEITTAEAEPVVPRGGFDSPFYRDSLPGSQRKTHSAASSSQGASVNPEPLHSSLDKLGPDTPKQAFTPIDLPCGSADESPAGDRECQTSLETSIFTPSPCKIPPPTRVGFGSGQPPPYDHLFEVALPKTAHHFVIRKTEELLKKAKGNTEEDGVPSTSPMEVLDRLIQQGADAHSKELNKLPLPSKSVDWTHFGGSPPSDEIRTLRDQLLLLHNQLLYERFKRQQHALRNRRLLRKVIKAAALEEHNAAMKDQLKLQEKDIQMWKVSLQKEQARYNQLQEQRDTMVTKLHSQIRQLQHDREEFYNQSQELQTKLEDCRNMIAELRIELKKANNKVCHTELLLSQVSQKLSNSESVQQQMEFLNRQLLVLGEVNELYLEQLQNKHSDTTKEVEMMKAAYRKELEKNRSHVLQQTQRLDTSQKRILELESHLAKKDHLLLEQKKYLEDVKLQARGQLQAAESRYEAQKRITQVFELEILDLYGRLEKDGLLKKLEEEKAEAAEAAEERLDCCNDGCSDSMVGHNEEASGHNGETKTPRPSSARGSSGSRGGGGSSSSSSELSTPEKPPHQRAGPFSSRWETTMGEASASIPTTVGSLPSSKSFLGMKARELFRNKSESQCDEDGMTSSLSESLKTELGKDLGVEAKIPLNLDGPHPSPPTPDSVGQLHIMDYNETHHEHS
# Test: co-IP; TSC1:TSC2 DKO HEK 293T cells cotransfected with C-terminal myc-tagged TSC1 and TSC2 or a TSC2 variant; cleared lysates (50 mM Tris-HCl pH 7.6, 100 mM NaCl, 50 mM NaF, 1% Triton X-100) divided between anti-myc affinity beads (TSC1 IP) and anti-TSC2 antiserum with Protein A-agarose (TSC2 IP); 3-4 hr at 4°C; immunoblot
row,binding,Substance
1,binds,TSC2 c.3134C>T (p.S1045F) variant (from UniProt P49815-1 1-1807)
2,binds,TSC2 c.4966G>T p.(D1656Y) variant (from UniProt P49815-1 1-1807)
3,no binding,TSC2 r.1444_1477delinsG p.482_493delinsV variant (from UniProt P49815-1 1-1807)
4,binds,TSC2 c.250G>A p.(A84T) variant (from UniProt P49815-1 1-1807)
5,binds,TSC2 c.1477C>G p.(L493V) variant (from UniProt P49815-1 1-1807)

# The remaining lines, values behind:
row,Substance,binding
1,TSC2 c.2747T>C p.(L916P) variant (from UniProt P49815-1 1-1807),binds
2,TSC2 c.4966G>A p.(D1656N) variant (from UniProt P49815-1 1-1807),binds
3,TSC2 c.3589A>T (p.I1197F) variant (from UniProt P49815-1 1-1807),binds
4,"TSC2, wild-type (from UniProt P49815-1 1-1807)",binds
5,TSC2 c.4225C>G p.(R1409G) variant (from UniProt P49815-1 1-1807),binds
6,TSC2 c.4709_4714del p.(1570_1571del) variant (from UniProt P49815-1 1-1807),binds

# — paper PMC7154745
